Data on 24 molecules can be found in ChEMBL document CHEMBL4888484, “Replenishing the malaria drug discovery pipeline: Screening and hit evaluation of the MMV Hit Generation Library 1 (HGL1) against asexual blood stage Plasmodium falciparum ,using a nano luciferase reporter read-out” (2022).

The whole screen tested about 150,000 compounds, of which about 540 (0.36%) showed an effect of 50% or more. The list shows a part of the results.

This test has as its system Plasmodium falciparum. The experiment in a line: Primary screen in NF54 nanoGlo assay, in single point, at 2uM, 72h; a lower Z score goes with more inhibition. The test is classed as functional, Erythrocyte. Conditions: timepoint 72 hour.
The term % Inhibition denotes the change of the read-out against control, counted positive when it falls. Consider `COc1ccc2ccn([C@@H](C)C(=O)N3CCN(C(C)=O)CC3)c(=O)c2c1`, for which the “% Inhibition” value worked out at 2% and the Z score is recorded as -0.36.
The like results for `CC1(C)CN(C(=O)Cn2nnc3c2CCCC3)[C@H]2CCC[C@H]21` were, in that order, 3% and -0.52.
The like results for `Cc1c[nH]c([C@H](C)NC(=O)CCn2ccnc2)n1` were, in that order, 5% and -0.49.
For `CCC1Oc2cc(S(=O)(=O)N3CCCC(C(=O)N4CCCc5ccccc54)C3)c(C)cc2NC1=O` (stereo not drawn) the same measures were -6% and 0.65.
Regarding `Cc1n[nH]cc1CNC(=O)NCC(C)(C)C(C)C`, the “% Inhibition” value is reported as -12% and the Z score stood at 1.61.
The like results for `O=C(Cn1cc(C(=O)N2CC3CCCC3C2)cn1)NC1CCCCC1` (stereo not drawn) were, in that order, -9% and 1.26.
On to `CCOc1c(Br)cc(Cl)cc1NCC(=O)NC(=O)NCC(C)C`, for which the “% Inhibition” value is on record as -7% and the Z score is given as 1.36.
Consider `CC1=C(C(=O)N2CC[C@@H]3OCC(=O)N[C@H]3C2)CCC1`, for which the “% Inhibition” value was -5% and the Z score is 0.4.
For `Cc1ccccc1-c1ncc(CN2CCOC[C@@H]2CO)cn1`, the “% Inhibition” value worked out at 2% and the Z score is -0.22.
The like results for `Cc1nnc(CC(=O)N(Cc2cc(F)ccc2F)c2ccccc2)o1` were, in that order, -9% and 1.21.
For `COc1ccc(N2CCC(C(=O)N3CCN(c4cccc(Cl)c4)CC3)CC2)nn1` the same measures were 5% and -0.68.
The like results for `CN1CCCN(S(=O)(=O)c2cccs2)c2ccccc21` were, in that order, 6% and -1.16.
In the case of `Cc1ccc(CNC(=O)N(C)CCc2cccs2)cn1`, the “% Inhibition” value is on record as 5% and the Z score is on record as -0.71.
For `C[C@H]1C(=O)NCCN1C(=O)C1CC=CC1` the same measures were -10% and 1.62.
The like results for `COCCN1CCN(c2nnc(COc3ccc(C)c(C)c3)n2CC2CCCO2)CC1C` (stereo not drawn) were, in that order, -4% and 0.52.
The like results for `CN(CCc1cnn(C)c1)CCN1C[C@@H]2CC[C@H]1C2` were, in that order, -4% and 0.64.
On to `COc1nn(C)cc1NC(=O)NC1(C(C)(C)c2ccccc2)CC1`, for which the “% Inhibition” value is reported as -7% and the Z score came to 1.18.
The like results for `O=C(O)C(c1ccccc1F)N1CCC(c2cccnc2)C1` (stereo not drawn) were, in that order, -10% and 2.03.
With `O=C(NCC1CCC2(CC1)OCCO2)c1ccccn1`, the “% Inhibition” value is -2% and the Z score stood at 0.28.
For `Cc1nc(-c2ccc(NC(=O)CNC(=O)C(C)(C)C)cc2)co1` the same measures were 0% and -0.07.
For `O=C(NC(Cc1ccccn1)[C@H]1C[C@H](O)C1)c1ccc(CO)o1` (stereo partly drawn) the same measures were -6% and 1.
For `COc1ccccc1N1CCN(C(=O)C[C@H]2CCCCN(Cc3ccccc3)C2=O)CC1` the same measures were 5% and -0.82.
For the molecule `COCc1nc2n(n1)C[C@@H](Nc1ccnc(C)c1)CC2`, the “% Inhibition” value is given as -1% and the Z score was determined as 0.18.
The like results for `CC1CC(C(=O)NCCCc2ncn(C)n2)CC(C)(C)C1` (stereo not drawn) were, in that order, 7% and -0.86.
